This is one part of the list.
T1: UNK ZnF1-3 (human, UniProt Q9C0B0 31-174)
T1 sequence: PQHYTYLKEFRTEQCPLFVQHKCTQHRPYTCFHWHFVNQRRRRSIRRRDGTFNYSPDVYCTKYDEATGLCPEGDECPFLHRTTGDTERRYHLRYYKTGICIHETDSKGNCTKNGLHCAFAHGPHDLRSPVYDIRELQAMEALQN

B1: 85901298_85902443_295_CDS_ENSG00000165678_ENST00000372134|human|control|control (ssRNA)
RNA: GGGAGUUCUACAGUCCGACGAUCCCGGAUCCCAAUUCUUGUUUUGGUGGCAUAUUCCCUGCUAGGUGUUAACAGCCAUUGAUUCUUCGUGAUGGAAUUCUUCACAACAGGGGAGGCCUUGGUGAAAGCUGGGUGGAAAACCCUCAACAGAGGAUUGAGCAUCA
B2: chr6:155153589:155153590:+_ENSG00000213079_ENST00000417268|hu_mus|FALSE|FALSE (ssRNA)
RNA: GGGAGUUCUACAGUCCGACGAUCGGGAACAUUGUCUAUACUUGGUCUUCCAGGGGCCAGAAAAGGUCUUUCUGGCUGACUGAAAAGAUCUCCUGGAGGAAAAGGUCCGCGGGGUGGAGGAUGAAGAGCUGCAUCAAGUACCGACAACAGAGGAUUGAGCAUCA
B3: chr11:46765198:46765199:-_ENSG00000175216_ENST00000415402|hu_hu|FALSE|FALSE (ssRNA)
RNA: GGGAGUUCUACAGUCCGACGAUCACAGAAUACAGUGACCCUUCAGGGCGACAGAGAAGAGCUCACAAACUGAAAGGAAAACUAUUAAAGAGUUUCUAAUAUUAACUAUUAAAAAGCUAGGAAAGAUUAGGACAAUUUUACAAACAACAGAGGAUUGAGCAUCA
B4: chr6:40197388:40197389:+_ENSMUSG00000057716_ENSMUST00000061740|mus_mus|mus_mus_mus_hu_False|78_78 (ssRNA)
RNA: GGGAGUUCUACAGUCCGACGAUCGAGACACUGGGGUGGAUUUAUUCCACCUCUGUUUGCUAGCCUCCCACUAAGACUGUUAUUUUGGGAUUCAUGGCCUUGAAUAUCAAGAGGGAAAGGAAGAGGAUGGAAAGAGUCAAGAGUCAACAGAGGAUUGAGCAUCA
B5: chr2:32089778:32089779:+_ENSMUSG00000039262_ENSMUST00000036691|mus_hu|motif|central (ssRNA)
RNA: GGGAGUUCUACAGUCCGACGAUCUAAACAAGCUGCACAUUACACCUCUAGCCAUCGUCUGCCCUUUCAAAUAUCUGGUCGGCAUGGAAAGACAAAGAGGAAAGGCCAAAACAUAAACAAAAGGAAACAAAAACAAAACACAACCAACAGAGGAUUGAGCAUCA
B6: chr2:120842339:120842340:+_ENSMUSG00000023572_ENSMUST00000060455|mus_hu|FALSE|FALSE (ssRNA)
RNA: GGGAGUUCUACAGUCCGACGAUCUUGCUAAAUAUAGAUAGGCACUCCCUUUCAAUCCAGCAAGCAUUCUAGCUCCAUUUUAAAAGCAGGUAUCAGAGCCUGACCAUGACGAUGAGAGGGGAAGAGAGUACAAAUGAGCCUGAACAACAGAGGAUUGAGCAUCA
B7: 170657327_170667349_2320_CDS_ENSG00000112584_ENST00000537664|human|control|control (ssRNA)
RNA: GGGAGUUCUACAGUCCGACGAUCAAACGCAUGCAAAUCCUCCAGGCAAAGCGUGUCCACCUGGACAAAGAGGUAGAUCAAGAGGCAGCACAAAGCUUGAAAUGGGCUUUCGACAGCCUGCAGCUCUUCUCUUGAGGAGGAAAGCAACAGAGGAUUGAGCAUCA
B8: chr4:129011843:129011844:-_ENSMUSG00000057236_ENSMUST00000102598|mus_hu|FALSE|FALSE (ssRNA)
RNA: GGGAGUUCUACAGUCCGACGAUCAGCAUGGGUCAUCACCAAAUCAUAAAGAAAAGGGGUGUUCUUUUUCCAUAUUUUGUAUUCCUCGUUGAUCACUCGUUCUUCCACUGCGUCGUCGAAGGCUGCGGGGACUGCACUCGGCAACAACAGAGGAUUGAGCAUCA
B9: chr4:76721835:76721836:+_ENSG00000138768_ENST00000264904|hu_mus|hu_hu_hu_mus_True|8_88 (ssRNA)
RNA: GGGAGUUCUACAGUCCGACGAUCGUUUGGCUGGGGUUUCUGAGACGUCUGGAAUACUAACUCAUGUUUGCUAAUAAAUCCUAGUUUCUCUAUGAAAUUCUCUUUGCCAAUCCUCUUCUCUAUUAGUGUUUUAGCUUUCUCUUUCAACAGAGGAUUGAGCAUCA
B10: chr16:17153567:17153568:-_ENSMUSG00000038965_ENSMUST00000090192|mus_mus|FALSE|FALSE (ssRNA)
RNA: GGGAGUUCUACAGUCCGACGAUCAAGCGCACUGUAUUCUCUGCUGGCAGACCCUCCCUCCAAGGUCACCACAAACCUGCUAUAACAGGUUCCCUGCAGAGACCCAGCCAGCACAGUCUGACUACAGAUAGGGACCAUGGGGGUCAACAGAGGAUUGAGCAUCA
B11: chrX:140365796:140365797:-_ENSMUSG00000031285_ENSMUST00000033642|mus_mus|mus_mus_mus_hu_False|48_58 (ssRNA)
RNA: GGGAGUUCUACAGUCCGACGAUCCUUCUCAUUACUCAGUGCCUGCAAGGUUCUGGUUCGGUAGAAGCUACAGUGGGCACUAUGAGUGGGACUUGGAAACCCAUUCAUCCGGGAGCCUCGCAUGUUCCUGGAUGUCUUAUCUCUCAACAGAGGAUUGAGCAUCA
B12: chr7:141441981:141441982:+_ENSG00000106028_ENST00000265304|hu_mus|hu_hu_hu_mus_False|28_28 (ssRNA)
RNA: GGGAGUUCUACAGUCCGACGAUCCUCAUGUCUUACAAACUGACGAAAUACCUGUAACACAGGUCUUCGAAACAUGGCUUCUGUUUUUCUUACAACCUAAUCUUUAGUUAGGCUUUUAAGGAAAGAAAGAAAAGAGAAAAAUGACAACAGAGGAUUGAGCAUCA
B13: chr13:60863204:60863205:+_ENSMUSG00000021559_ENSMUST00000077453|mus_mus|FALSE|FALSE (ssRNA)
RNA: GGGAGUUCUACAGUCCGACGAUCCAGUCCAUAAAGACCCUACCCAAGCCAAGGCUGCCCUCACCGGGACACCACUGAGCUAAUGGAAUUGUAGGACGUGCCACUGUUACAGCUUGAGGCAUAGGCCUCCUGGCCAUUGCCAUCCAACAGAGGAUUGAGCAUCA
B14: chr2:217001844:217001845:+_ENSG00000079246_ENST00000392132|hu_hu|motif|central (ssRNA)
RNA: GGGAGUUCUACAGUCCGACGAUCGCCGACUUGAGGAUUAGCUCUUUUGUCAUAAGCAUAUCGAACUAUGGCCACCAUGUCGGAGUCAUCCAAAGCAUGAAUCAGGGAGGAAAGUGCAACUGCAGCUGCCUCAUCAUCUCUUGCCAACAGAGGAUUGAGCAUCA

Molecular target: T1, UNK ZnF1-3
Assay: nsRBNS (natural sequence RNA bind-n-seq); RBNS binding buffer (assumed for nsRBNS): 25 mM Tris pH 7.5, 150 mM KCl, 3 mM MgCl2, 0.01% Triton X-100, 500 ug/ml BSA, 20 U/ml SUPERase-In, 4 C; UNK is unkempt and MSI1 is Musashi-1; names of the RNAs are library labels; protein concentration not given here; high values mean tight binding

Point of comparison: B8, binding signal 1.4 enrichment R. Against it:
- B1 — lower, 0.961 enrichment R
- B2 — higher, 1.75 enrichment R
- B3 — higher, 2.77 enrichment R
- B4 — lower, 1.24 enrichment R
- B5 — higher, 3.27 enrichment R
- B6 — higher, 1.54 enrichment R
- B7 — lower, 1.18 enrichment R
- B9 — lower, 0.548 enrichment R
- B10 — lower, 0.911 enrichment R
- B11 — lower, 0.43 enrichment R
- B12 — lower, 0.632 enrichment R
- B13 — lower, 0.912 enrichment R
- B14 — higher, 1.47 enrichment R
